Experimental data as given in PubChem BioAssay AID686978 (National Center for Advancing Translational Sciences (NCATS), 2013).
Values joined by “and” are separate entries in the source; they are usually repeats but may differ in a detail not shown here. Identical values can stand only once. The whole screen tested about 420,000 compounds, of which about 64,000 (15%) were called active. This list was built around the results that the source calls inconclusive (neither active nor inactive); the mix of calls is not that of the screen. Calls come from the whole dose curve; as a rule, active = well fitted inhibition curve with a large enough effect; inconclusive = small, poorly fitted or top-dose-only effect; inactive = flat fitted curve, though single readings scatter. Potencies beside an inconclusive call are fits to weak or partial responses and may not hold up.

Experiment: qHTS for Inhibitors of human tyrosyl-DNA phosphodiesterase 1 (TDP1): qHTS in cells in absence of CPT; note: nearly all actives have a fitted effect of over 55% in size
Conditions: DT40 Tdp1-/- hTDP1 cells, no CPT, ATP luminescence, 48 h; series mostly up to 46.2 µM
How it was run: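 Growth of hTDP1-complemented DT40 Tdp1-knockout cells is measured by ATP luminescence after at least 48 hr compound exposure at 37 °C, with DMSO substituting for the 20 nM CPT used in the parallel screen.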
Potency is the fitted concentration of half-maximal effect; tags give direction and shape of the fitted curve.

Row | SMILES | Potency
1 | CCc1cn([C@H]2C[C@H](O)[C@@H](CO)O2)c(=O)[nH]c1=O | inconclusive: 13 µM [inhibitor, partial curve] and inconclusive: 4.61 µM [inhibitor, partial curve]
2 | COCCn1c(SCC(=O)N2CCC(C)CC2)nc2ccccc2c1=O | inconclusive: 25.9 µM [inhibitor, partial curve]
3 | O=C(NC(NC(=S)Nc1cccc(C(=O)O)c1)C(Cl)(Cl)Cl)OCc1ccccc1 (configuration not stated) | inactive
4 | COCCNC(=O)CCCn1c(SCC(=O)Nc2cccc(C)c2)nc2c(sc3ccccc32)c1=O | inconclusive: 29.1 µM [inhibitor, single point]
5 | COC(=O)c1cc(S(=O)(=O)Nc2cc(OC)cc(OC)c2)cn1C | inconclusive: 9.2 µM [inhibitor, single point]
6 | CCc1ccc(CNC(=O)c2nn(C)c3c2CS(=O)(=O)c2ccccc2-3)cc1 | inconclusive: 25.9 µM [inhibitor, single point]
7 | COc1ccc(N2CCN(c3nc4c(c(=O)n(C)c(=O)n4C)n3Cc3ccccc3)CC2)cc1 | inconclusive: 18.4 µM [inhibitor, single point]
8 | Cc1nnc2ccc(Oc3ccc(-c4ccccc4)cc3)nn12 | inconclusive: 35.5 µM [inhibitor, single point]
9 | COc1cc(C2c3c(oc4ccccc4c3=O)C(=O)N2c2nccs2)ccc1O (configuration not stated) | inactive
10 | CC(=O)NN1C(=O)/C(=C\c2ccc(Br)o2)SC1=S | active: 16.4 µM
11 | O=c1c2cnn(-c3ccccc3)c2nc(-c2ccco2)n1-c1ccccc1 | active: 20.6 µM
12 | COc1ccc(C(=O)c2oc3ccccc3c2NC(=O)COc2c(C)cc(C)cc2C)cc1 | inactive
13 | Cc1cccc(NC(=S)NCCO)c1C | inactive
14 | COc1ccc(CCc2nnc(CCC(=O)NCc3ccc4ncccc4c3)o2)cc1 | inactive
15 | CC(=O)c1ccc(O[C@@H]2O[C@H](CO)[C@@H](O)[C@H](O)[C@H]2O)cc1 | inactive
16 | Cc1nn(Cc2nnc(SCC(=O)Nc3cccc(C(F)(F)F)c3)n2C)c(C)c1[N+](=O)[O-] | inconclusive: 16.4 µM [inhibitor, single point]
17 | C#CCCCc1nc2ccccc2c(=O)n1N | inactive
18 | Cc1cc(/C=C(\C#N)C(=O)Nc2ccccc2F)c(C)[nH]1 | inactive
19 | CCOC(=O)c1cc(CC)sc1NC(=O)c1ccc([N+](=O)[O-])c(N2CCOCC2)c1 | inactive
20 | CCn1c(SCC(=O)NNC(=O)c2ccccc2)nnc1-c1ccco1 | inconclusive: 29.1 µM [inhibitor, single point]
21 | O=C(CN1c2cccc3cccc(c23)S1(=O)=O)Nc1ccc(F)c(F)c1F | inconclusive: 23.1 µM [inhibitor, single point]
22 | COc1ccc(N2C(=O)c3ccccc3NC2c2ccccc2O)cc1 (configuration not stated) | inactive
23 | COc1ccc(CCNC(=O)COC(=O)C2CCCCC2)cc1 | inactive
24 | CSCCC(=O)NC1CCCN(CCc2ccccc2)C1 (configuration not stated) | inactive

Row | SMILES | Potency
25 | CC(C)(C)c1cc(NC(=O)c2cc(F)c(F)c(F)c2F)no1 | inconclusive: 23.1 µM [inhibitor, single point]
26 | COc1ccc(Cl)cc1NC(=O)C1CC(c2c(F)cccc2Cl)=NO1 (configuration not stated) | inconclusive: 29.1 µM [inhibitor, single point]
27 | COc1cccc(CNC(=O)c2c(O)nc3ccccn3c2=O)c1 | inconclusive: 29.1 µM [inhibitor, single point]
28 | CC(NS(=O)(=O)OCC(Cl)(Cl)Cl)c1ccc(C(C)(C)C)cc1 (configuration not stated) | inconclusive: 14.6 µM [inhibitor, partial curve, poor fit]
29 | Cc1cccc(NC(=O)c2ccc(OCC3CCCO3)cc2)c1C (configuration not stated) | inactive
30 | N#Cc1nc(N)nc(N2CCCCC2)n1 | inconclusive: 12.6 µM [inhibitor, partial curve]
31 | O=[N+]([O-])c1ccc2[nH]cc(S(=O)(=O)N3CCN(c4cccc(Cl)c4)CC3)c2c1 | inactive
32 | Cc1nn(C)c(Oc2ccccc2)c1CCNS(=O)(=O)c1ccccc1 | inconclusive: 18.4 µM [inhibitor, single point]
33 | CC(NC(=O)Cn1cccc1C(=O)c1ccccc1)c1ccccc1 (configuration not stated) | inconclusive: 29.1 µM [inhibitor, single point]
34 | C(=N\N1CCN(Cc2cccc3ccccc23)CC1)/c1ccco1 | inconclusive: 0.206 µM [inhibitor, partial curve]
35 | NS(=O)(=O)c1ccc(CCNC(=O)C2CCCN2C(=O)c2cccs2)cc1 (configuration not stated) | inactive
36 | O=C1Nc2ccccc2N(C(=O)c2ccc(-c3ccccc3)cc2)C1c1nc2ccccc2[nH]1 (configuration not stated) | active: 20.6 µM
37 | C/C(=N\NC(=O)c1cc(C2CC2)nc2ccccc12)c1ccc(O)cc1O | active: 5.17 µM
38 | O=C(Nc1nnc(C2CCCCC2)s1)C1CC(=O)N(c2ccc(F)cc2)C1 (configuration not stated) | inactive
39 | CCCN(CC(=O)Nc1ccccc1C)C(=O)c1ccc(S(=O)(=O)N2CCCCCC2)cc1 | inactive
40 | CCOC(=O)C1C(=O)CC(C)(O)C(C(=O)OCC)C1/C=C/c1ccccc1 (configuration not stated) | inactive
41 | Cc1cccc(NC(=O)c2ccc(-c3ccccc3[N+](=O)[O-])o2)c1 | inconclusive: 16.4 µM [inhibitor, single point]
42 | CCCN(CCC)CC(O)Cn1cc(/C=C/C(=O)c2cccs2)c2ccccc21 (configuration not stated) | inconclusive: 29.1 µM [inhibitor, single point]
43 | Cc1[nH][nH]c(=O)c1C(c1ccc(-c2ccc(Cl)cc2)o1)c1c(C)[nH][nH]c1=O | inconclusive: 20.6 µM [inhibitor, single point]
44 | Nc1nc(Cl)nc2c1ncn2C1CCC(CO)O1 (configuration not stated) | active: 1.46 µM
45 | COc1cc(/C=C2/NC(=O)N(Cc3ccccc3F)C2=O)cc(OC)c1OC | active: 16.4 µM
46 | CN(c1ccccc1)S(=O)(=O)c1ccc(C(=O)NCCc2ccccc2)cc1 | inconclusive: 29.1 µM [inhibitor, single point]
47 | CCOC(=O)CN1C(=O)C(C)(C)Oc2ccc(C(=O)Nc3ccccc3)cc21 | inconclusive: 29.1 µM [inhibitor, single point]
